# According to PubChem BioAssay AID1508642 (National Center for Advancing Translational Sciences (NCATS), 2021):
# Out of some 43,000 compounds screened, about 200 (0.47%) were called active. About 12% were inconclusive and are not listed. Calls follow the shape of the dose curve; as a rule, active = well fitted cell-killing curve with a large enough effect; inconclusive = small, poorly fitted or top-dose-only effect, or effect the other way; inactive = flat fitted curve, though single readings scatter. This is one part of the list.
# Test: Cell viability qHTS assay in S16 Pmp22-F2sN cells; also: nearly all actives have a fitted effect of over 65% in size
# Conditions: S16 Pmp22-F2sN Schwann cells (luciferase reporters placed in the Pmp22 gene) viability, CellTiter-Glo, 24 h; series mostly up to 57.5 µM; activity change, negative = cytotoxicity: at the top concentration
# Procedure, shortened: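 Seed 500-1,000 S16 Pmp22-F2sN cells per well in phenol-red-free DMEM with 10% heat-inactivated FBS; pin-add 23 nL compound; incubate 24 h at 37C; add CellTiter-Glo, wait 15 min protected from light; read luminescence.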
# % is scaled to controls: 0 for no effect and ±100 for the full control effect; potency is read from the fitted curve at half-maximal effect.
Compound,"activity change, negative = cytotoxicity",Potency
O=C(NCc1ccc(Cl)cc1)C1(c2cccs2)CCOCC1,inactive: 8.22%,–
CCC1=Nc2cc(C(=O)NCCCOC(C)C)ccc2Sc2ccc(C)cc21,inactive: -0.206%,–
COc1ccc(-c2noc(-c3cc(C(C)C)[nH]n3)n2)cc1,inactive: -14.1%,–
CCN1CCc2c(sc(NC(=O)CSc3ccccc3)c2-c2nc3ccccc3s2)C1,inactive: -22.8%,–
CCOc1ccc(CNC(=O)CN2C(=O)CSc3ccc(S(=O)(=O)N4CCOCC4)cc32)cc1OC,inactive: 25.4%,–
Cn1c(=O)cc(OCC(=O)N2CCN(c3ccccc3F)CC2)c2ccccc21,inactive: 6.26%,–
Cc1ccc(CNC(=O)C2CCCN(c3nc4c(C)cc(C)cc4s3)C2)cc1 (configuration not stated),inactive: 0.629%,–
COC(=O)c1ccccc1NC(=O)CCn1nc(C)c2c(C)n(-c3ccccc3)nc2c1=O,inactive: -1.77%,–
Cc1ccc(OCCSc2nc3ccccc3n2CC(=O)N2CCCCC2)cc1C,inactive: 1.95%,–
O=C(Nc1ccc(NC(=O)c2cccs2)cc1)c1ccc(Cl)cc1,inactive: 16.2%,–
COC(=O)c1ccccc1NC(=O)Cn1ncc2c(C)n(Cc3ccc(F)cc3)c(C)c2c1=O,inactive: -23.8%,–
CCCN1CCN(CC2=C(C(=O)OCC)C(c3cccc(OC)c3OC)NC(=O)N2)CC1 (configuration not stated),inactive: -13.2%,–
CCCCc1nn2c(=O)cc(COC(=O)c3ccc(NC(=O)c4cccc(OC)c4)cc3)nc2s1,inactive: 7.03%,–
Cc1ccc(NC(=O)N2CCc3c(sc4c3CCCC4)C2c2ccccc2)cc1F (configuration not stated),inactive: 7.1%,–
CSc1ncc(C(=O)NCc2ccccc2Cl)c(C(F)(F)F)n1,inactive: -3.1%,–
CCOc1cccc2sc(NC(=O)c3ccc(S(=O)(=O)N4CCc5ccccc54)cc3)nc12,inactive: 16.3%,–
CCc1cccc(C)c1NC(=O)C(CC)Sc1nc2ccncc2[nH]1 (configuration not stated),inactive: 0.894%,–
Cc1cc(C)cc(NC(=O)N2CCN(C)c3ncccc32)c1,inactive: 8.6%,–
Cc1ccc2c(CC(=O)Nc3ccc(S(=O)(=O)Nc4nc(C)cc(C)n4)cc3)coc2c1,inactive: -1.45%,–
CCCCN(C)C(=O)c1ccc2c(c1)N(Cc1cccc(Cl)c1)C(=O)c1ccccc1S2=O (configuration not stated),inactive: -17.6%,–
CCOC(=O)CSc1nc2cc3c(cc2c(=O)n1CCCCCC(=O)NCc1ccc2c(c1)OCO2)OCO3,inactive: 2.04%,–

Compound,"activity change, negative = cytotoxicity",Potency
CC1CCN(S(=O)(=O)c2ccc3nc(N4CCN(c5ccccc5F)CC4)ccc3c2)CC1,inactive: -4.63%,–
COc1ccc(/C=C(\C#N)c2nc(-c3cc4ccccc4oc3=O)cs2)cc1OC,inactive: 22.9%,–
Cc1ccc(-c2onc(C)c2C)cc1S(=O)(=O)NC1CCC(C)CC1 (configuration not stated),inactive: -5.04%,–
CCOc1cc(C2CC(=O)Nc3c2c(C)nn3-c2nc(C)cc(C)n2)ccc1O (configuration not stated),inactive: 1.64%,–
COC(=O)c1cccnc1-n1c(=O)c2cccnc2n(CC(=O)Nc2cccc(C(F)(F)F)c2)c1=O,inactive: -6.9%,–
CCOc1ccccc1CNC(=O)c1ccc(Cn2c(=O)c3cccn3c3cccnc32)cc1,inactive: -0.722%,–
CC(C)c1ccc(-c2noc(SCC(=O)N3CCCCC3)n2)cc1,inactive: -6.44%,–
CCCN(CCC)CCCNC(=O)c1nn(C)c2c1CS(=O)(=O)c1ccccc1-2,inactive: -7.48%,–
COc1cc(C)ccc1OCCSc1nnc(-c2cccs2)o1,inactive: -5.27%,–
O=C(/C=C/c1ccccc1)Nc1cc(-c2nc3ccccc3o2)ccc1Cl,inactive: -4.95%,–
FC(F)(F)c1cccc(N2CCN(Cc3nnc(-c4ccccc4)o3)CC2)c1,inactive: 18.7%,–
CCN(CC)c1ccc(C2C(C(N)=O)=C(C)Nc3nc(SCc4ccccc4)nn32)cc1 (configuration not stated),inactive: 14.2%,–
O=c1c2ccccc2nc2sc(Nc3cccc(C(F)(F)F)c3)nn12,inactive: -3.18%,–
COc1ccccc1CNC(=O)c1cnn(-c2ccc(F)cc2F)c1C1CCN(C(=O)OC(C)(C)C)CC1,inactive: -9.83%,–
Cc1ccc(N2CC(NC(=O)Cc3ccc(F)cc3)CC2=O)cc1C (configuration not stated),inactive: 11.4%,–
COCCN1CN=C(NS(=O)(=O)c2ccc(C)cc2)NC1,inactive: 8.92%,–
COc1ccc(-c2noc(CCC(=O)Nc3ccccc3Cl)n2)cc1OC,inactive: -1.03%,–
CSc1cccc(NS(=O)(=O)c2ccc3[nH]cc(C(=O)N4CCCCCC4)c(=O)c3c2)c1,inactive: 0.769%,–
Cc1cccc(Cc2c(C)nc3nc(SCC(=O)NC4CCCCC4)nn3c2C)c1,inactive: 2.74%,–
Fc1ccc(-c2noc3ncnc(NCc4cccc(Cl)c4)c23)cc1,inactive: 4.69%,–
COc1ccc(/C=C\c2onc(C)c2S(=O)(=O)N2CCC(C(=O)Nc3ccc(C)c(F)c3)CC2)cc1,inactive: -2.21%,–

Compound,"activity change, negative = cytotoxicity",Potency
CCOC(=O)c1nnc2c(-c3ccc(F)cc3)c(C)nn2c1N,inactive: 0.663%,–
Cc1cccc(C(=O)NCc2cn3cccc(C)c3n2)c1,inactive: 20.4%,–
CC(C)c1ccc(Cc2cnc(NC(=O)c3ccc4c(c3)CC(c3ccccc3)OC4=O)s2)cc1 (configuration not stated),inactive: 0.26%,–
COc1ccccc1N1CCN(Cc2cc(COC(C)C)c3cccnc3c2O)CC1,–,active: 7.08 µM
CCOC(=O)C1CCCN(C(=O)Cn2nc(C)n3c(cc4c(OC)cccc43)c2=O)C1 (configuration not stated),inactive: 18.5%,–
Cc1ccc(-n2c(=O)c3cccnc3n2CC(=O)Nc2ccccc2C(F)(F)F)cc1C,inactive: 8.12%,–
COc1cccc(CNC(=O)C2CCCN(S(=O)(=O)c3cn(C)cn3)C2)c1 (configuration not stated),inactive: -3.39%,–
Cc1ccc(C)c(NC(=O)C(NS(=O)(=O)c2ccc3c(c2)CCC(=O)N3)c2ccccc2)c1 (configuration not stated),inactive: 5.05%,–
CC[C@H](C)NC(=O)CCCc1nnc2n(CCC(C)C)c(=O)c3sccc3n12,inactive: 2.46%,–
COc1ccccc1OC(C)C(=O)N1CCN(CCc2ccccn2)CC1 (configuration not stated),inactive: 7.99%,–
COc1ccc(-c2cn3c(n2)sc2cc(C(=O)NC4CCCCC4)ccc23)cc1,inactive: 1.79%,–
Cc1[nH]c2ccccc2c1SCCNC(=O)c1ccc(F)cc1,inactive: -23.9%,–
CCOc1ccccc1NC(=O)CSc1nc(-c2cccs2)cc(C(F)(F)F)n1,inactive: 21.5%,–
Cc1cc(-c2ccc(C)c(S(=O)(=O)NCCc3ccccc3)c2)on1,inactive: -2.27%,–
O=C(Nc1cc(-c2nc3ccccc3o2)ccc1Cl)c1cc([N+](=O)[O-])ccc1N1CCOCC1,inactive: 9.55%,–
COc1cccc(CNC(=O)C2CCN(c3ncnc4c3nc3n4CCCCC3)CC2)c1,inactive: 2.1%,–
Cc1ccc(Nc2c(-c3cccc(Cl)c3)nc3cccc(C)n23)cc1,inactive: -2.49%,–
CCC(=O)N1c2ccccc2CC1C(=O)NCCN1CCN(c2ccccc2F)CC1 (configuration not stated),inactive: 7.17%,–
Cc1ccc(NC(=O)CSc2nc(=O)n(CCN3CCOCC3)c3c2CCC3)cc1Cl,inactive: -2.91%,–
Cn1c(=O)nc2n(-c3ccc(Br)cc3)c3cccc(Cl)c3cc-2c1=O,inactive: 0.877%,–
